In the supplement of paper PMC4967469:
By IC50 is meant the dose at which the fit gives 50% viability; where the fit passes the top or lowest dose, that dose stands as a limit. AUC, from the same fit, is the share of area under the viability curve across the 256-fold dose range; it is 1 without any effect and falls as sensitivity rises. For some assays here: A top dose marked as inferred comes from the curve model; the source does not state it. For some assays here: An entry number marks a drug with two screens in the source, which often give different values.

What was measured:
Experiment in all cases: Viability of human cancer cell lines after 72 h of drug (GDSC screen)
QL-X-138 = compound: C=CC(=O)Nc1cc(-n2c(=O)ccc3cnc4ccc(-c5cn[nH]c5)cc4c32)ccc1C [QL-X-138]; details: top dose 10.24 µM; top dose inferred
Description: (§1)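 Human cancer cell lines in 384-well plates, medium with 10% serum, drug for 72 h over a 256-fold dose range (nine 2-fold or five 4-fold steps up to the top dose). Adherent lines were fixed and stained with the nucleic acid dye Syto60, suspension lines read with resazurin; signal relative to control wells, capped at 0 and 100%. One two-parameter sigmoid per drug and line, fitted in a mixed model over all curves with the slope shared within a line.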

ABT-888 = compound: C[C@]1(c2nc3c(C(N)=O)cccc3[nH]2)CCCN1 [ABT-888]; details: top dose 5 µM; top dose inferred
Description: as §1

Thapsigargin = compound: C/C=C(/C)C(=O)O[C@H]1C(C)=C2[C@H]([C@@H]1OC(=O)CCCCCCC)[C@@](C)(OC(C)=O)C[C@H](OC(=O)CCC)[C@@]1(O)[C@H]2OC(=O)[C@@]1(C)O [Thapsigargin]; details: top dose 0.512 µM; top dose inferred
Description: as §1

MPS-1-IN-1 = compound: COc1cc(N2CCC(O)CC2)ccc1Nc1cc(Nc2ccccc2S(=O)(=O)C(C)C)c2cc[nH]c2n1 [MPS-1-IN-1]; details: top dose 20 µM; top dose inferred
Description: as §1

CHIR-99021 = compound: Cc1cnc(-c2cnc(NCCNc3ccc(C#N)cn3)nc2-c2ccc(Cl)cc2Cl)[nH]1 [CHIR-99021]
Description: as §1

KU-55933 = compound: O=c1cc(-c2cccc3c2Sc2ccccc2S3)oc(N2CCOCC2)c1 [KU-55933]; details: top dose 10 µM
Description: as §1

Zibotentan = compound: COc1nc(C)cnc1NS(=O)(=O)c1cccnc1-c1ccc(-c2nnco2)cc1 [Zibotentan]; details: top dose 20 µM; top dose inferred
Description: as §1

ABT-869 = compound: Cc1ccc(F)c(NC(=O)Nc2ccc(-c3cccc4[nH]nc(N)c34)cc2)c1 [ABT-869]; details: top dose 1.024 µM; top dose inferred
Description: as §1

(5Z)-7-Oxozeaenol = compound: COc1cc(O)c2c(c1)/C=C/C[C@H](O)[C@H](O)C(=O)/C=C\C[C@H](C)OC2=O [(5Z)-7-Oxozeaenol]; details: top dose 10 µM; top dose inferred
Description: as §1

CP466722 = compound: COc1cc2ncnc(-n3nc(-c4ccccn4)nc3N)c2cc1OC [CP466722]; details: top dose 16 µM; top dose inferred
Description: as §1

GSK269962A = compound: CCn1c(-c2nonc2N)nc2cnc(Oc3cccc(NC(=O)c4ccc(OCCN5CCOCC5)cc4)c3)cc21 [GSK269962A]; details: top dose inferred
Description: as §1

[1] = top dose 2.56 µM, screen: GDSC drug entry 154
[2] = top dose 10 µM, screen: GDSC drug entry 1241, top dose inferred
[3] = top dose 5 µM, screen: GDSC drug entry 1192
[4] = top dose 2.5 µM, screen: GDSC drug entry 127

Cell Line | AUC (QL-X-138) | IC50 (QL-X-138) [µM] | AUC (ABT-888) | IC50 (ABT-888) [µM] | AUC (Thapsigargin) | IC50 (Thapsigargin) [µM] | AUC (MPS-1-IN-1) | IC50 (MPS-1-IN-1) [µM] | AUC (CHIR-99021; [1]) | IC50 (CHIR-99021; [1]) [µM] | AUC (CHIR-99021; [2]) | IC50 (CHIR-99021; [2]) [µM] | AUC (KU-55933) | IC50 (KU-55933) [µM] | AUC (Zibotentan) | IC50 (Zibotentan) [µM] | AUC (ABT-869) | IC50 (ABT-869) [µM] | AUC ((5Z)-7-Oxozeaenol) | IC50 ((5Z)-7-Oxozeaenol) [µM] | AUC (CP466722) | IC50 (CP466722) [µM] | AUC (GSK269962A; [3]) | IC50 (GSK269962A; [3]) [µM] | AUC (GSK269962A; [4]) | IC50 (GSK269962A; [4]) [µM]
JHU-022 (head and neck, adherent) | 0.853 | > 10.2 | 0.967 | > 5 | 0.887 | > 0.512 | 0.889 | > 20 | 0.98 | > 2.56 | 0.972 | > 10 | 0.908 | > 10 | 0.971 | > 20 | 0.979 | > 1.02 | 0.599 | 1.26 | 0.931 | > 16 | 0.909 | > 5 | – | –
JIMT-1 (breast, adherent) | 0.854 | 9.05 | 0.974 | > 5 | 0.261 | 0.00622 | 0.961 | > 20 | 0.976 | > 2.56 | 0.955 | > 10 | 0.967 | > 10 | 0.985 | > 20 | 0.985 | > 1.02 | 0.653 | 1.72 | 0.86 | 15.2 | 0.923 | > 5 | – | –
KON (head and neck, adherent) | 0.963 | > 10.2 | 0.987 | > 5 | 0.199 | 0.00418 | 0.983 | > 20 | 0.986 | > 2.56 | 0.982 | > 10 | 0.965 | > 10 | 0.983 | > 20 | 0.983 | > 1.02 | 0.776 | 3.89 | 0.98 | > 16 | 0.901 | > 5 | – | –
KU-19-19 (bladder, adherent) | 0.93 | > 10.2 | 0.986 | > 5 | 0.592 | 0.0574 | 0.987 | > 20 | 0.969 | > 2.56 | 0.862 | 8.6 | 0.927 | > 10 | 0.986 | > 20 | 0.984 | > 1.02 | 0.236 | 0.108 | 0.937 | > 16 | 0.871 | 4.68 | – | –
KYM-1 (rhabdomyosarcoma, adherent) | 0.78 | 3.59 | 0.966 | > 5 | 0.158 | 0.00357 | 0.979 | > 20 | 0.991 | > 2.56 | 0.991 | > 10 | 0.941 | > 10 | 0.991 | > 20 | 0.991 | > 1.02 | 0.232 | 0.121 | 0.93 | > 16 | 0.927 | > 5 | 0.841 | 1.38
LN-18 (glioma, adherent) | 0.975 | > 10.2 | 0.994 | > 5 | 0.319 | 0.0112 | 0.993 | > 20 | 0.994 | > 2.56 | 0.963 | > 10 | 0.984 | > 10 | 0.994 | > 20 | 0.992 | > 1.02 | 0.825 | 4.54 | 0.971 | > 16 | 0.936 | > 5 | – | –
LS-180 (large intestine, adherent) | 0.865 | > 10.2 | 0.978 | > 5 | 0.289 | 0.0074 | 0.981 | > 20 | 0.978 | > 2.56 | 0.975 | > 10 | 0.941 | > 10 | 0.984 | > 20 | 0.984 | > 1.02 | 0.658 | 1.84 | 0.9 | > 16 | 0.883 | > 5 | – | –
MDA-MB-231 (breast, adherent) | 0.818 | 6.24 | 0.975 | > 5 | 0.153 | 0.00248 | 0.986 | > 20 | 0.986 | > 2.56 | 0.963 | > 10 | 0.981 | > 10 | 0.986 | > 20 | 0.981 | > 1.02 | 0.537 | 0.796 | 0.866 | 15.8 | 0.904 | > 5 | – | –
ME-180 (cervix, adherent) | 0.535 | 0.803 | 0.978 | > 5 | 0.896 | > 0.512 | 0.906 | > 20 | 0.985 | > 2.56 | 0.984 | > 10 | 0.946 | > 10 | 0.986 | > 20 | 0.977 | > 1.02 | 0.541 | 0.812 | 0.762 | 5.95 | 0.893 | > 5 | – | –
MG-63 (osteosarcoma, adherent) | 0.984 | > 10.2 | 0.983 | > 5 | 0.208 | 0.00373 | 0.984 | > 20 | 0.958 | > 2.56 | 0.906 | > 10 | 0.94 | > 10 | 0.984 | > 20 | 0.984 | > 1.02 | 0.611 | 1.33 | 0.984 | > 16 | 0.9 | > 5 | – | –
MHH-ES-1 (Ewing sarcoma, adherent) | 0.502 | 0.65 | 0.929 | > 5 | 0.196 | 0.00407 | 0.695 | 4.38 | 0.727 | 0.699 | 0.984 | > 10 | 0.945 | > 10 | 0.983 | > 20 | 0.985 | > 1.02 | 0.731 | 2.82 | 0.658 | 2.72 | 0.782 | 2.06 | – | –
